Assay results reported in the antibiotic and cytotoxicity screens of Wong et al. (2023).
This is one part of the list.

Key:
[1] = system: HSkMC (human skeletal muscle cells); assay: cytotoxicity call (relative viability < 0.9); settings: 10 µM
[2] = system: HepG2; assay: cytotoxicity call (relative viability < 0.9); settings: 10 µM
[3] = system: S. aureus RN4220; assay: growth inhibition call (relative growth <= 0.2); settings: 50 µM

Row | Structure (SMILES) | cytotoxicity call [1] | cytotoxicity call [2] | growth inhibition call [3]
1 | COc1ccc(OCc2c(-c3ccccc3)nnn2CC(=O)NS(=O)(=O)c2cccc(C#N)c2)cc1 | inactive | inactive | inactive
2 | CN1C(=O)c2cc(NC(=O)Cc3cccs3)ccc2OC[C@@H]2O[C@H](CC(=O)NCCCN3CCOCC3)CC[C@H]21 | inactive | inactive | inactive
3 | C[C@H]1CN([C@@H](C)CO)C(=O)c2cccc(NC(=O)C3CCCCC3)c2O[C@@H]1CN(C)C(=O)Nc1cccc2ccccc12 | inactive | inactive | inactive
4 | C#CCOC(=O)[C@@H]1[C@@H](C(=O)O)[C@@H]2C=C[C@@H]1C2 | inactive | inactive | inactive
5 | COc1ccc(NC(=O)N(C)C[C@H]2OCCCC[C@H](C)Oc3ccc(NC(=O)Cc4ccccc4)cc3C(=O)N([C@H](C)CO)C[C@@H]2C)cc1 | inactive | inactive | inactive
6 | C[C@H](CO)N1C[C@H](C)[C@H](CN(C)Cc2ccncc2)Oc2ccc(NC(=O)CCCN(C)C)cc2C1=O | inactive | inactive | inactive
7 | C=C(C)C1COc2cc3oc(=O)ccc3cc2O1 (stereo not drawn) | inactive | inactive | inactive
8 | C[C@@H]1CN([C@@H](C)CO)C(=O)Cc2cc(NC(=O)CCC(F)(F)F)ccc2O[C@@H]1CN(C)Cc1ccc(Oc2ccccc2)cc1 | inactive | active | inactive
9 | C[C@H](CO)N1C[C@H](C)[C@@H](CN(C)C(=O)Nc2ccccc2)OCCCC[C@H](C)Oc2ccc(NC(=O)c3ccncc3)cc2C1=O | inactive | inactive | inactive
10 | CC(C)CC#Cc1ccc2c(c1)O[C@@H](CN(C)C(=O)Cc1ccncc1)[C@@H](C)CN([C@@H](C)CO)S2(=O)=O | inactive | inactive | inactive
11 | C=CCNC(=O)[C@@H]1[C@H]2C(=O)O[C@H](c3ccccc3)[C@H](c3ccccc3)N2[C@H](c2ccc(O)cc2)[C@@]12C(=O)N(C(=O)OCCOC)c1ccc(C#Cc3ccc(OC)cc3)cc12 | inactive | inactive | inactive
12 | C[C@H](CO)N1C[C@H](C)[C@@H](CN(C)C(=O)CCC(F)(F)F)OCCCC[C@H](C)Oc2ccc(NC(=O)Nc3ccc4c(c3)OCO4)cc2C1=O | inactive | inactive | inactive
13 | Cc1noc(C)c1S(=O)(=O)N(C)C[C@H]1Oc2ccc(NS(=O)(=O)c3ccccc3)cc2C(=O)N([C@H](C)CO)C[C@H]1C | inactive | inactive | inactive
14 | C[C@H](CO)N1C[C@H](C)[C@H](CN(C)C(=O)c2cc(-c3ccccc3)on2)OCc2cnnn2CCCC1=O | inactive | inactive | inactive
15 | CN1CCN(C(=O)C[C@H]2CC[C@@H]3[C@H](COC[C@@H](O)CN3C(=O)C3CCOCC3)O2)CC1 | inactive | inactive | inactive
16 | Cc1ccc(S(=O)(=O)Nc2ccc3c(c2)C(=O)N([C@@H](C)CO)C[C@@H](C)[C@@H](CN(C)S(C)(=O)=O)O3)cc1 | inactive | inactive | inactive
17 | CO[C@@H]1CN(C)C(=O)c2ccc(NC(=O)C3CC3)cc2OC[C@H](C)N(C(=O)Cc2ccccn2)C[C@@H]1C | inactive | inactive | inactive
18 | C[C@@H]1CCCCO[C@@H](CN(C)C(=O)C2CCCCC2)[C@H](C)CN([C@@H](C)CO)C(=O)c2cc(NS(=O)(=O)c3cccs3)ccc2O1 | inactive | inactive | inactive
19 | COCCNC(=O)C[C@H]1C[C@H]2c3cc(NC(=O)COC)ccc3O[C@H]2[C@@H](CO)O1 | inactive | inactive | inactive
20 | C[C@H]1CN([C@@H](C)CO)C(=O)c2cccc(NS(=O)(=O)c3ccc(F)cc3)c2O[C@H]1CN(C)C(=O)Nc1cccc2ccccc12 | inactive | inactive | inactive
21 | NCCCn1c2c(c3ccccc31)CCCC2 | inactive | active | inactive
22 | CC[C@H]1Sc2ccccc2NC1=O | inactive | inactive | inactive
23 | CO[C@H](C(=O)N(C)C[C@H]1OCc2ccccc2-c2c(n(C)c3ccccc23)C(=O)N([C@@H](C)CO)C[C@@H]1C)c1ccccc1 | inactive | inactive | inactive
24 | C[C@H]1CN([C@@H](C)CO)C(=O)CCCn2cc(nn2)CO[C@@H]1CN(C)Cc1ccc(C(=O)Nc2ccccc2N)cc1 | inactive | inactive | inactive
25 | O=C(C[C@@H]1CC[C@@H]2[C@H](COC[C@H](O)CN2C(=O)c2ccncc2)O1)NC1CCC1 | inactive | inactive | inactive
26 | Cc1ccc(S(=O)(=O)N(C)C[C@H]2OCCCC[C@H](C)Oc3ccc(NC(=O)C4CCCCC4)cc3C(=O)N([C@@H](C)CO)C[C@@H]2C)cc1 | inactive | active | inactive
